Measured values published in the supplement of paper PMC12355420.
Where a name gives a salt, the structure may show the parent alone. The list shows a part of the results. Most values come without repeats; read them as rough.

The compounds below were run on HeLa VPS33A KO + NLuc-VPS33A R498W (assay: relative mutant VPS33A R498W amount (NanoLuc luminescence) vs DMSO (fraction of DMSO); HeLa model of a glycosaminoglycan (GAG) storage disease; KI is knock-in and KO knock-out; SDC1 is syndecan 1; higher = higher mutant VPS33A level). Details: 50 µM; 24 h.
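Note: screen of an FDA-approved drug library, NanoLuc luminescence read after lysing the treated cells, taken as a measure of mutant VPS33A protein stability.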

| SMILES | relative mutant VPS33A R498W amount |
| --- | --- |
| CCc1c2c(nc3ccc(OC(=O)N4CCC(N5CCCCC5)CC4)cc13)-c1cc3c(c(=O)n1C2)COC(=O)[C@]3(O)CC [Irinotecan] | 0.731 |
| CC(=O)Nc1ccccc1 [Acetanilide] | 1.48 |
| O=C1Cc2cc(CCN3CCN(c4nsc5ccccc45)CC3)c(Cl)cc2N1 [Ziprasidone HCl] | 1.27 |
| Cn1cncc1[C@@](N)(c1ccc(Cl)cc1)c1ccc2c(c1)c(-c1cccc(Cl)c1)cc(=O)n2C [Tipifarnib (Zarnestra)] | 0.567 |
| CCCNC(=O)NS(=O)(=O)c1ccc(Cl)cc1 [Chlorpropamide] | 1.26 |
| COC(=O)[C@@H]1CC2=CC(=O)CC[C@]2(C)[C@@]23O[C@@H]2C[C@@]2(C)[C@@H](CC[C@@]24CCC(=O)O4)[C@H]13 [Epleremone] | 0.894 |
| NC[C@H]1O[C@H](O[C@H]2[C@H](O)[C@@H](O[C@H]3O[C@H](CO)[C@@H](O)[C@H](N)[C@H]3O)[C@H](N)C[C@@H]2N)[C@H](O)[C@@H](O)[C@@H]1O [Kanamycin Sulfate] | 0.95 |
